Assay results published in a compilation of properties of binary mixtures (doi:10.1016/j.molliq.2021.115373).
Some of these densities may be calculated back from excess volumes.

Test: xn = mol fraction of the nth substance listed
Details: 101 kPa

O=C1CCCO1 + CC[N+](C)(CC)CCOC.O=S(=O)([N-]S(=O)(=O)C(F)(F)F)C(F)(F)F
x2 = 0
Details	mass density [kg/m3]
288.15 K	1133.4
293.15 K	1128.7
298.15 K	1123.9
303.15 K	1118.9
308.15 K	1114
313.15 K	1109.2
318.15 K	1104.5
323.15 K	1099.2
333.15 K	1090
338.15 K	1085.2
343.15 K	1080.6
348.15 K	1075.8
353.15 K	1071

CC[N+](C)(CC)CCOC.O=S(=O)([N-]S(=O)(=O)C(F)(F)F)C(F)(F)F + O=C1CCCO1
mass density [kg/m3]
Details	x1 = 0.2006	x1 = 0.3003	x1 = 0.4007	x1 = 0.4998	x1 = 0.6002	x1 = 0.6999	x1 = 0.8001	x1 = 0.9003	x1 = 1
288.15 K	–	1276.1	1313.6	–	–	1377.6	1390.4	1400.8	1409.5
293.15 K	1217.2	–	1309.6	–	1357.2	1373.2	1385.9	1396.3	–
298.15 K	1213.5	1268.2	–	1332.5	1352.9	1368.8	1381.4	1391.7	1400.3
303.15 K	1209.8	1264.3	1301.5	1328.3	1348.7	–	1377	1387.2	–
308.15 K	1206	–	–	–	1344.4	1360.1	1372.6	–	1391.2
313.15 K	–	1256.4	1293.3	1320	1340.1	1355.7	–	1378.3	1386.6
318.15 K	1198.5	1252.5	1289.2	1315.8	–	1351.3	1363.7	1373.8	1382.1
323.15 K	–	1248.6	–	–	–	1347.1	1359.4	1369.4	1377.6
328.15 K	1191.2	1244.8	1281.3	1307.6	–	1342.8	1355	1365	–
333.15 K	1187.3	1240.8	–	1303.5	1323.2	1338.5	1350.7	1360.5	–
338.15 K	1183.7	1237	1273.2	1299.3	1319	1334.2	1346.3	1356.1	1364.2
343.15 K	1179.9	–	1269.2	–	1314.9	1330	1342	1351.8	1359.8
348.15 K	1176.3	1229.3	–	1291.2	1310.8	–	1337.7	–	1355.4
353.15 K	–	–	1261.2	1287.2	–	1321.6	1333.5	–	1351
